Laboratory results published in PMC4336329 (PLoS ONE, 2015).
The whole screen tested about 310,000 compounds, of which about 2,200 (0.71%) showed an effect of 50% or more. Effects have a minus sign here. The list shows a part of the results.

target: human ether-à-go-go-related gene (hERG) potassium channel (human, UniProt Q12809); assay: primary screen, population patch clamp on CHO cells stably expressing hERG
Sequence (Q12809 whole entry, looked up): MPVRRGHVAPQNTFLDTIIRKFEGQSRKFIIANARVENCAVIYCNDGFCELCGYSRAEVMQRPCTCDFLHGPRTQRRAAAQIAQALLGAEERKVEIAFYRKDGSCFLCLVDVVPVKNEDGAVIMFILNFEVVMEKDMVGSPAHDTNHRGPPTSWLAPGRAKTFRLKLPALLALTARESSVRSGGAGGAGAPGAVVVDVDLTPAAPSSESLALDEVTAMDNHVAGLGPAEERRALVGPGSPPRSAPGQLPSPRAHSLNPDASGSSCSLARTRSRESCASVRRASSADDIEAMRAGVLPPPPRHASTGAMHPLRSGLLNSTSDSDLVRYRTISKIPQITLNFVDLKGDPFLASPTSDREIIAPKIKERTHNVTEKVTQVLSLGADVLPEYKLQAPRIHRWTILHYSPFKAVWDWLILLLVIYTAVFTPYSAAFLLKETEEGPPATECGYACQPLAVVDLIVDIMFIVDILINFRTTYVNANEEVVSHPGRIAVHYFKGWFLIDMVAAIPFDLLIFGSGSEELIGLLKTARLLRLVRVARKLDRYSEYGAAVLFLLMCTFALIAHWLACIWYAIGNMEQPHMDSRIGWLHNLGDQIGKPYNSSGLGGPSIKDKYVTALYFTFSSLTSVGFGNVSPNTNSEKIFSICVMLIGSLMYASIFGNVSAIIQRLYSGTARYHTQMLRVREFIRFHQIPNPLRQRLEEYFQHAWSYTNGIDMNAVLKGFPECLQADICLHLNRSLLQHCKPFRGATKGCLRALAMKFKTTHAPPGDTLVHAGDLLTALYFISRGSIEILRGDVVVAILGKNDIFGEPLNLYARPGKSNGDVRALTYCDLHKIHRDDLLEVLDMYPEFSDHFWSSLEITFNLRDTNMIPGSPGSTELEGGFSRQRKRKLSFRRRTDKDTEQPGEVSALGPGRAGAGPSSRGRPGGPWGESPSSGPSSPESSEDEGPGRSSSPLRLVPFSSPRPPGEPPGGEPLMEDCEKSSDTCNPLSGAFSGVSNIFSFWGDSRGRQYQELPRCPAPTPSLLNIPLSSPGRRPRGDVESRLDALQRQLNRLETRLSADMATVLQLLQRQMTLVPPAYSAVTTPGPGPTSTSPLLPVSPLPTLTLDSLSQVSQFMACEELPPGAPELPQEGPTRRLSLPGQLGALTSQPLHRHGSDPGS

Point of comparison: Cc1ccc(S(=O)(=O)N(C)C)cc1NC(=O)CCNC(=O)c1ccccc1Cl, “hERG current change (%, negative = inhibition) at 1uM” value 14.3%. Against it:
- CCOC(=O)CNC(=O)C12CC3CC(CC(C3)C1)C2 — higher, 20.8%
- Cc1ccc(NC(=O)Cn2nnc(C(=O)NCCc3ccccc3)c2N)c(C)c1 — lower, 12.2%
- COc1ccc(NC(C)=O)cc1S(=O)(=O)Nc1cccc(S(=O)(=O)NC2=NCCC2)c1 — lower, 8.91%
- CCOc1ccc(-n2c(N)c(C(=O)NCC3CCCO3)sc2=S)cc1 (centres unmarked) — lower, 5.33%
- Cc1ccc(NC2=CC(=O)CC(C)(C)C2)c(N)c1 — lower, 0.634%
- CC1CC(C)CN(C(=O)c2ccc3c(c2)OCCO3)C1 (centres unmarked) — lower, 1.96%
- CCCCn1c(N)c(N(CC(C)C)C(=O)c2oc3ccc(OC)cc3c2C)c(=O)[nH]c1=O — lower, 3.18%
- COC(=O)c1ccc(COc2ccc(-c3nnn(CC(N)=O)n3)cc2)cc1 — lower, 11.9%
- CC(CN(C)Cc1ccccc1)OC(=O)c1ccc(F)cc1.Cl (centres unmarked) — lower, 3.94%
- COc1ccc(NC(=O)CN(C)S(=O)(=O)c2ccc(Br)s2)cc1 — higher, 15.7%
- CCCCCCCNC(=O)COc1ccc2c(c1)C(=O)CC(C)(C)O2 — lower, -1.67%
- Cc1ccc2c(c1)c1c3n2CCCNC3CCC1 (centres unmarked) — lower, -15.3%
- COc1ccc(C(=O)NCC(=O)N/N=C/c2ccc([N+](=O)[O-])s2)cc1OC — lower, -9.14%
- Cc1cccc(-n2ncc3c(N4CCCC4)ncnc32)c1 — higher, 17.7%
- O=C(Cc1ccccc1)N1CCN(CC2CC3C=CC2C3)CC1.O=C(O)C(=O)O (centres unmarked) — lower, 3.48%
- Cc1cc(/C=N/NC(=O)CC2(C)OCCO2)c(C)n1-c1ccc(Cl)c(Cl)c1 — higher, 15%
- COc1ccc(S(=O)(=O)N2CC(C)N(C(=O)N(C)C)C2C)cc1 (centres unmarked) — higher, 16%
- COc1cc(-c2c(C#N)c(=O)[nH]c3c2c(C)nn3-c2ccccc2)ccc1O — higher, 17.3%
- CCOc1cccc(NC(=O)Cn2nc(-c3ccc4c(c3)OCCO4)ccc2=O)c1 — lower, 13.3%
- COCCN1C(=O)C(CC(=O)Nc2ccc(C(C)=O)cc2)SC1=Nc1ccccc1 (centres unmarked) — lower, 11%
- Cl.c1ccc(SCCCCN2CCOCC2)cc1 — lower, 9.91%
- Cc1ccc(S(=O)(=O)N2CCN(c3ccnc4cc(Cl)ccc34)CC2)cc1C — higher, 21.6%
- Cc1cccc(OCC(=O)NNC(=O)Cn2c(=O)cnc3ccccc32)c1 — lower, 12%
- O=C(Nc1cccc(F)c1)Nc1ccc2c(c1)OCO2 — lower, 12.8%
- CCOc1ccc(CCNC(=O)C2CC=CCC2C(=O)OC(C)C)cc1OCC (centres unmarked) — higher, 24.6%
- CC(C)[C@H](CO)Nc1nc(NCc2ccc(S(N)(=O)=O)cc2)c2ncn(C(C)C)c2n1 — lower, 14.1%
- O=C(c1cccc(C(F)(F)F)c1)C1CCCN(Cc2ccc(OCCO)cc2)C1 (centres unmarked) — lower, -18.2%
- Cc1cc(C)c2c(CN3CCC(C)CC3)cc(=O)oc2c1C — lower, 11.5%
- Cc1ccc(-n2ncc3c2ncn2nc(-c4ccco4)nc32)c(C)c1 — lower, 3.02%
- CSC1CCCCC1(O)CSc1nc2c(cc1C#N)CCCC2 (centres unmarked) — lower, 3.46%
- CCCCC(=O)Nc1cc(C)c(NC(=O)c2ccco2)cn1 — higher, 14.6%
- CC1=C(C(=O)Nc2ccc(F)cc2)C(c2ccncc2)C2=C(CCCC2=O)N1 (centres unmarked) — lower, -12.9%
- COc1ccc(/C=N/NC(=O)c2cc(C)n(-c3ccccc3)c2C)cc1OC — lower, 2.73%
- CC(C)CCn1c(SCc2ccc(Cl)cc2)nc2c1c(=O)[nH]c(=O)n2C — lower, 12.9%
- C[C@H]1CCC(=O)N([C@H](COc2ccccc2)Cc2ccccc2)CC1 — lower, 1.3%
- O=C(c1ccco1)N1CCN(CC(=O)N2CCCc3c2c(=O)oc2ccc(O)cc32)CC1 — lower, 3.45%
- CCn1c(/C=C/c2ccccc2)nc2ccccc2c1=O — lower, 14.2%
- CC(C)(C)C(=O)NC1CCN(S(C)(=O)=O)CC1 — lower, 7.82%
- CCOC(=O)C1=NN(c2ccc(F)cc2)C2=NC(C)=C(C(=O)OC)C(c3cccs3)N12 (centres unmarked) — lower, -1.06%
- CCOc1ccc(-c2nc(-c3cccnc3)no2)cc1OCC — lower, 8.67%
- CCCCCCCCNC(=O)c1cnccn1 — lower, 3.79%
- Cc1ccc(NC(=O)CSc2nnc3n2CCCCC3)cc1 — lower, 8.56%
- Cc1ccc(/C=N/Nc2nncc(-c3ccccc3)n2)o1 — lower, 11.9%
- CN(C)/C(=N\O)c1c(Cl)cccc1Cl — lower, 9.68%
- CC(=O)NC(=S)Nc1ccc(NC(=O)c2cccnc2Cl)cc1 — lower, 9.84%
- Cc1ccc(CS(=O)(=O)c2cn(CC(=O)Nc3ccon3)c3ccccc23)cc1 — higher, 14.4%
- O=C(Nc1cccc(Cl)c1)N1CCN(C2c3ccccc3-c3ccccc32)CC1 — lower, 8.43%
- Cn1c(SCC(=O)Nc2sc3c(c2C#N)CCC3)nnc1C1COc2ccccc2O1 (centres unmarked) — lower, 8.41%
- COCCNC(=O)C(c1ccc(C)cc1)N(Cc1ccco1)C(=O)CCC(=O)Nc1ccccn1 (centres unmarked) — higher, 20%
- O=C(COc1ccccc1C(=O)N/N=C\c1ccc(O)c(O)c1)N/N=C/c1ccc(O)c(O)c1 — lower, 2%
- Cc1ccc(SCC(=O)N2CCc3ccccc32)cc1 — lower, 12.4%
- CCOC(=O)N1CCC(NC(=O)CS(=O)(=O)Cc2nc(-c3cccc(Cl)c3)oc2C)CC1 — higher, 15.6%
- CCOc1ccc(-c2noc(CCC(=O)NCC3CCCO3)n2)cc1OC (centres unmarked) — higher, 16.3%
- COc1ccccc1NC(=O)Nc1ccc(S(=O)(=O)Nc2onc(C)c2C)cc1 — lower, 10.4%
- Cc1ccc(C(=O)NNC(=O)c2ccccc2-n2cccc2)cc1 — lower, -2.92%
